# Laboratory results taken from the BET-seq Pho4 binding data (Le et al. 2018).
# The other results are listed elsewhere or left out. Values were computed here from the reads of four pooled replicates and scatter widely.
# Target: T1, Pho4 (S. cerevisiae) (UniProt P07270)
# T1 sequence: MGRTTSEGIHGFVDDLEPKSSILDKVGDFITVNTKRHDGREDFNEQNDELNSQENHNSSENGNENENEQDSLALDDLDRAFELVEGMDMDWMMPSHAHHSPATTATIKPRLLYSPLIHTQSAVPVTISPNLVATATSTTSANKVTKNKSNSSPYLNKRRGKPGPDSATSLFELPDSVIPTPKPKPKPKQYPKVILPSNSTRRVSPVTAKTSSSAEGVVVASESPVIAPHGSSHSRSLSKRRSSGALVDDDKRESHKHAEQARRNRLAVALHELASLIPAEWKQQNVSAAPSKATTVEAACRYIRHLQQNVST
# Test: relative binding free energy (BET-seq); higher = weaker binding
# Conditions: reference: library average
row,Sequence,relative binding free energy [kcal/mol]
1,TGTGTCACGTGCTTGC,-0.06
2,GCTTGCACGTGGTTGT,-0.05
3,CGATTCACGTGTCGGG,0.27
4,TAAGTCACGTGGGCAG,-0.07
5,GAAGGCACGTGTTGGA,-0.05
6,TTCAGCACGTGTGTCT,0.02
7,GTCGCCACGTGGGGGC,-0.1
8,TAGGGCACGTGCGGTG,-0.28
9,GGGGCCACGTGGGGGA,-0.14
10,CTGGTCACGTGAAGCG,0.19
11,TACTTCACGTGTTGGT,0.33
12,GTAGTCACGTGCGGTC,0.15
13,CTGGGCACGTGAAATT,0.22
14,TTGATCACGTGACTGT,0.31
15,AGGAACACGTGTGTGA,0.08
16,TGAAGCACGTGCTGTT,-0.26
17,AGAAGCACGTGAGGTC,0.25
18,TAAGGCACGTGGTGGT,-0.07
19,AAAGTCACGTGTGGGG,0.14
20,GTTGCCACGTGTGAGG,-0.09
21,TGTAGCACGTGGTATG,-0.11
22,TAGTTCACGTGTGCGC,0.34
23,TTGCCCACGTGGGGGG,-0.31
24,ATGAGCACGTGGAATG,-0.12
25,AAGGTCACGTGGTGTA,-0.03
26,ATGTTCACGTGACCGG,0.26

row,Sequence,relative binding free energy [kcal/mol]
1,CTCGTCACGTGGGTTG,0.07
2,AAAGTCACGTGGGGGA,-0.05
3,AACGACACGTGGGGGG,0
4,TGTAGCACGTGGCGCG,-0.24
5,GTGTTCACGTGTAAAA,0.26
6,TGTATCACGTGTTCGT,0.03
7,TTATACACGTGTGAAG,-0.05
8,AGTCGCACGTGAGTTA,0.18
9,ATTATCACGTGGTTGA,0.06
10,AGCGCCACGTGGGTAG,-0.2
11,ATAAGCACGTGTAAAT,0.24
12,TTTTCCACGTGATGTT,0.27
13,TTGCGCACGTGGTATG,-0.29
14,TTTAACACGTGGCGGT,-0.06
15,GGTTGCACGTGGATCT,-0.02
16,ATTTGCACGTGTGAGG,0.17
17,ATTTTCACGTGTGTGC,0.3
18,CGGATCACGTGGTATG,0.02
19,CAGGGCACGTGAATGT,0.08
20,AAAAACACGTGTAGGG,0.2
21,TATTCCACGTGGGGTT,0
22,GATGCCACGTGATTGG,0.22
23,ATGCGCACGTGGGGTG,-0.33
24,AAGATCACGTGGGGTT,0.1
25,AGTTTCACGTGATGAA,0.2
26,ATGCGCACGTGAGGCT,0.05

row,Sequence,relative binding free energy [kcal/mol]
1,TATCGCACGTGAAGGG,0.35
2,TGTAGCACGTGATCTG,0.05
3,TTTCACACGTGGTGTG,-0.04
4,TTATACACGTGTGGGC,0.12
5,ATTTGCACGTGAAGGG,0.26
6,GTGTGCACGTGTCTGT,-0.03
7,TGTGTCACGTGTCGTG,0.1
8,GCGCGCACGTGTGTGT,-0.08
9,TGCGGCACGTGGCTGG,-0.11
10,CAAGTCACGTGTTGAG,0.16
11,TCAGTCACGTGTGTTT,0.13
12,TTGAGCACGTGCGGTC,-0.11
13,GGTGGCACGTGAGGAC,0.23
14,TCGAGCACGTGGGGTC,-0.09
15,AAGGTCACGTGTTTCG,0.07
16,TCGCGCACGTGGTAGG,-0.31
17,TGTGACACGTGGTTGT,-0.02
18,CGAGGCACGTGGCGGG,-0.05
19,CTAGCCACGTGGTTGG,-0.09
20,TGAGGCACGTGAGATT,0.16
21,TTAATCACGTGCTTGT,0.12
22,GTTTACACGTGGATAA,0.24
23,GTGAGCACGTGGGCGT,-0.14
24,ATAGTCACGTGTTAGT,0.17
25,CTTTTCACGTGGCTTA,0.33
26,GTCTCCACGTGGTGTG,0.11

row,Sequence,relative binding free energy [kcal/mol]
1,TTGTGCACGTGAAAGT,0.24
2,AGTTACACGTGTAAGA,0.15
3,CGTGGCACGTGAGTGT,0.13
4,TCAGACACGTGGGTGG,-0.15
5,TCTGTCACGTGTCTTG,0.16
6,TTAGGCACGTGTTAAA,-0.14
7,GTCGACACGTGAGGTA,0.27
8,AGGCCCACGTGGGGTT,-0.2
9,TAGAGCACGTGTGTAG,-0.07
10,CAGGGCACGTGGCTGT,-0.16
11,GTGGCCACGTGTCGGT,0.11
12,GGGCTCACGTGGGGTT,0.1
13,GGTTACACGTGTATGC,0.08
14,GTTAACACGTGCAGTT,0.04
15,AGGGTCACGTGGGTAA,0
16,CGGTGCACGTGCGAGT,0
17,GAGGACACGTGTGTGC,0.04
18,GGATACACGTGGCAGG,0.04
19,TTTAGCACGTGATTAT,-0.01
20,TATGGCACGTGTATGC,-0.06
21,GTTGCCACGTGTGTCG,-0.01
22,TGGTGCACGTGGGTGG,-0.12
23,AATGACACGTGTGGAG,0.11
24,ATTTGCACGTGGAAGG,0.17
25,TTTCCCACGTGGTGTG,-0.23
26,TTGTGCACGTGAAGTT,0.29

row,Sequence,relative binding free energy [kcal/mol]
1,GGTTGCACGTGAGCGG,0.23
2,GGTACCACGTGAGGTT,0.29
3,TTATTCACGTGGGTTG,0.15
4,GTTTACACGTGTTGAG,0.29
5,GAGCGCACGTGTGGGA,0.03
6,TGTAGCACGTGGGCAA,-0.12
7,AGGGGCACGTGGCCAG,-0.18
8,CGCGGCACGTGAGTGT,0.16
9,GATAGCACGTGGTATG,-0.08
10,GGTATCACGTGCGCGG,0.02
11,GATGACACGTGTTGGC,0.1
12,TTCGTCACGTGCGTAT,0.11
13,TTGCACACGTGGAGTT,0.03
14,ATCGTCACGTGAGGGG,0.15
15,AGGTGCACGTGTTAGC,-0.1
16,GGCTGCACGTGATGGG,0.19
17,AGGACCACGTGGGGTT,-0.28
18,ATTAGCACGTGGAGAT,0.06
19,AAGTTCACGTGTGCTA,0.27
20,AGTGTCACGTGTTATC,0.14
21,AGATACACGTGGGGCG,-0.02
22,TGTAACACGTGGGAGG,-0.01
23,GGTGTCACGTGTCCTT,0.24
24,CGTGTCACGTGCGATG,0.08
25,GATAGCACGTGTGTGA,-0.01
26,GATGGCACGTGGTTGG,-0.12

row,Sequence,relative binding free energy [kcal/mol]
1,TGTGGCACGTGGCCTG,-0.25
2,TATCTCACGTGTATAT,0.2
3,CGTTTCACGTGTGAGT,0.42
4,ATGGGCACGTGTGAGA,-0.01
5,GGGAGCACGTGAGGTC,0.29
6,ATAAGCACGTGGGTTG,-0.32
7,CGTTTCACGTGGTCGT,0.08
8,CTGTGCACGTGGCGTG,-0.17
9,TTAGCCACGTGGTATG,-0.28
10,CCGTTCACGTGGAGTT,0.4
11,CGGGTCACGTGTGTTT,0.1
12,CTGGTCACGTGGTTTG,0.12
13,TTATTCACGTGGAGGC,0.26
14,GTTGACACGTGTATCT,0.14
15,TGAAACACGTGATTGG,0.29
16,TATGGCACGTGTAAGA,0.08
17,GGGGGCACGTGATTAG,0.02
18,TGTTTCACGTGGGAAC,0.16
19,ACCTGCACGTGTGGGG,0.05
20,AGGTGCACGTGCAGGT,-0.2
21,CGGGGCACGTGTTGCT,-0.14
22,AGGTGCACGTGTCGCG,0.11
23,AGGTTCACGTGTCGCT,0.19
24,GGTATCACGTGAGGGT,0.45
25,CTGAGCACGTGGGTTT,-0.18
26,AAGTTCACGTGACGTG,0.31

row,Sequence,relative binding free energy [kcal/mol]
1,GCGGGCACGTGGGCTT,-0.28
2,GGTGCCACGTGGGATT,-0.09
3,GGATTCACGTGTCGGC,0.32
4,GGATACACGTGGTTGG,0.1
5,TGTTACACGTGCGTGT,-0.07
6,ATCGTCACGTGGGATT,0
7,AAGTACACGTGAAATG,0.47
8,GTAATCACGTGGATTT,0.13
9,AAGTGCACGTGTCAGT,-0.03
10,TGAGTCACGTGTGTGA,0.13
11,AGTTGCACGTGGGGCA,-0.1
12,TTTGGCACGTGACTAT,0
13,ATGGACACGTGGAGCG,0.02
14,GGAAGCACGTGTAGGT,-0.04
15,TTTATCACGTGGTGGC,0.02
16,TGAATCACGTGATTTT,0.24
17,TGTATCACGTGAACTG,0.37
18,CGTTTCACGTGGAGTA,0.34
19,GTGGGCACGTGTTCGA,-0.05
20,TAATTCACGTGGTAGA,0.03
21,TTGTTCACGTGATCGT,0.4
22,GGTGTCACGTGGTACA,0.04
23,TAATCCACGTGTGTTG,0.04
24,TCTCGCACGTGTTGGG,-0.03
25,ACGGTCACGTGGTTTG,0.15
26,AGCGTCACGTGGTAGA,0.02

row,Sequence,relative binding free energy [kcal/mol]
1,GGGACCACGTGTGGCG,0.05
2,AGGGACACGTGTAAGT,0.08
3,TGGGCCACGTGTTGGG,0.03
4,AGAAGCACGTGGGAGG,-0.12
5,CGTATCACGTGATGTG,0.21
6,GGCGGCACGTGCTGGG,-0.15
7,TAGGGCACGTGATGTA,0.02
8,GTGTCCACGTGTTTGC,0.16
9,TTAGTCACGTGGGTAA,0
10,GGGGTCACGTGGCCAG,0.02
11,AATCGCACGTGGGTTG,-0.18
12,CCGTTCACGTGGCGGG,0.23
13,TGTGGCACGTGCGGTG,-0.12
14,TTTTGCACGTGAGTGC,0.19
15,GGCGGCACGTGCTTGT,-0.03
16,TTCTTCACGTGTGAGC,0.48
17,GTTTTCACGTGGTGCA,0.35
18,TTTGTCACGTGTAATA,0.23
19,GTGGACACGTGTGGCA,0.1
20,TGTTACACGTGGTGAA,0.02
21,TGCGGCACGTGGCCGG,-0.23
22,AAAGTCACGTGATGGG,0.18
23,CTTTGCACGTGTAATT,-0.01
24,AGTTGCACGTGTGTAC,-0.07
25,TTACTCACGTGTCGGG,0.18
26,AGTATCACGTGTAGGA,0

row,Sequence,relative binding free energy [kcal/mol]
1,CAGGTCACGTGAGAGG,0.27
2,CGGTTCACGTGTAGTG,0.12
3,TCAAGCACGTGTGGGG,0.01
4,CAGGGCACGTGATGTT,-0.04
5,GATGGCACGTGGTGAT,-0.07
6,AAAGGCACGTGTCGAG,-0.06
7,GTGATCACGTGGGATC,0.12
8,CGGTGCACGTGATTAG,0.12
9,TCTGCCACGTGGGGCA,-0.02
10,ATGGGCACGTGCAGGT,-0.36
11,GATCTCACGTGAGGTG,0.38
12,TTAAGCACGTGGGCTG,-0.3
13,TGGTGCACGTGAAGTC,0.11
14,GAGAACACGTGGGGGT,0.04
15,CGTGTCACGTGATCGT,0.14
16,TAGTTCACGTGTTAGT,0.28
17,AGTATCACGTGGTGTA,-0.06
18,GTTTGCACGTGGTTTT,0.06
19,ACTAGCACGTGGTTTG,-0.04
20,GTTCGCACGTGTTTTG,0.07
21,GCTAGCACGTGGGGGG,-0.11
22,CTAAACACGTGTTGGG,0.08
